{"source": "a collection of fitness landscapes (doi:10.1016/j.celrep.2020.107928)", "parents": {"B1": {"name": "Caulobacter ParB omega fusion; a variant is named by its letters at X, in order, B8GW30 (parent)", "chain": "MESVVVGEPGMSEGRRGLGRGLSALLGEVDAAPAQAPGEQLGGSREAPIEILQRNPDQPRRTFREEDLEDLSNSIREKGVLQPILVRPSPDTAGEYQIVAGERAWRAAQRAGLKTVPIMVRELDDLAVLEIGIIENVQRADLNVLEEALSYKVLMEKFERTQENIAQTIGKSXSHVANXMRLLXLPDEVQSYLVSGELTAXHARAIAAAADPVALAKQIIEGGLSVRETEALARKAPNLSAGKSKGGRPPRVKDTDTQALESDLSSVLGLDVSIDHRGSTGTLTITYATLEQLDDLCNRLTRGI"}}, "note": "The full ranking holds about 81,000 sequences; the median of “one-hybrid fitness for binding parS DNA” is about -0.17, and the highest 2% start at about 0.51. The list shows a part of the results.", "data": [{"variants_of": "B1", "assay": "one-hybrid fitness for binding parS DNA (scaled: cognate 1, non-cognate 0); higher = stronger binding", "conditions": "with parS DNA site", "in_short": "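Selection: bacterial one-hybrid in E. coli USO, HIS3 reporter with the site 19 bp from the promoter, 48 hours at 37°C on M9-minus-histidine plus 0.1 mM IPTG and 5 mM 3-AT. Libraries were Caulobacter ParB with four randomised specificity codons, sequenced on Illumina before and after selection. Fitness is the rescaled log change in variant-to-wild-type read ratio, anchored to the cognate and non-cognate sites.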", "values": [{"variant": "FNLT", "one-hybrid fitness for binding parS DNA": "≤ 0.2"}, {"variant": "IQPW", "one-hybrid fitness for binding parS DNA": "≤ 0.2"}, {"variant": "NMTE", "one-hybrid fitness for binding parS DNA": "≤ 0.2"}, {"variant": "SPAQ", "one-hybrid fitness for binding parS DNA": "≤ 0.2"}, {"variant": "NWTG", "one-hybrid fitness for binding parS DNA": "≤ 0.2"}, {"variant": "RASL", "one-hybrid fitness for binding parS DNA": "≤ 0.2"}, {"variant": "NAHS", "one-hybrid fitness for binding parS DNA": "≤ 0.2"}, {"variant": "QVNP", "one-hybrid fitness for binding parS DNA": "≤ 0.2"}, {"variant": "ALSD", "one-hybrid fitness for binding parS DNA": "≤ 0.2"}, {"variant": "CRCF", "one-hybrid fitness for binding parS DNA": "≤ 0.2"}, {"variant": "MRSS", "one-hybrid fitness for binding parS DNA": "≤ 0.2"}, {"variant": "LQLN", "one-hybrid fitness for binding parS DNA": "≤ 0.2"}, {"variant": "RPCT", "one-hybrid fitness for binding parS DNA": "≤ 0.2"}, {"variant": "HTNC", "one-hybrid fitness for binding parS DNA": "≤ 0.2"}, {"variant": "ESNW", "one-hybrid fitness for binding parS DNA": "≤ 0.2"}, {"variant": "PGEG", "one-hybrid fitness for binding parS DNA": "≤ 0.2"}, {"variant": "IDVT", "one-hybrid fitness for binding parS DNA": "≤ 0.2"}, {"variant": "HPTT", "one-hybrid fitness for binding parS DNA": "≤ 0.2"}, {"variant": "TLQF", "one-hybrid fitness for binding parS DNA": "≤ 0.2"}, {"variant": "AKAV", "one-hybrid fitness for binding parS DNA": "≤ 0.2"}, {"variant": "VGSC", "one-hybrid fitness for binding parS DNA": "≤ 0.2"}, {"variant": "EPMR", "one-hybrid fitness for binding parS DNA": "≤ 0.2"}, {"variant": "STQK", "one-hybrid fitness for binding parS DNA": "≤ 0.2"}, {"variant": "PFPR", "one-hybrid fitness for binding parS DNA": "≤ 0.2"}, {"variant": "DSRT", "one-hybrid fitness for binding parS DNA": "≤ 0.2"}, {"variant": "KFHG", "one-hybrid fitness for binding parS DNA": "≤ 0.2"}, {"variant": "CFSR", "one-hybrid fitness for binding parS DNA": "≤ 0.2"}, {"variant": "DSKA", "one-hybrid fitness for binding parS DNA": "≤ 0.2"}, {"variant": "PRMC", "one-hybrid fitness for binding parS DNA": "≤ 0.2"}, {"variant": "GAGT", "one-hybrid fitness for binding parS DNA": "≤ 0.2"}, {"variant": "FDAG", "one-hybrid fitness for binding parS DNA": "≤ 0.2"}, {"variant": "GMRD", "one-hybrid fitness for binding parS DNA": "≤ 0.2"}, {"variant": "LNAM", "one-hybrid fitness for binding parS DNA": "≤ 0.2"}, {"variant": "CERM", "one-hybrid fitness for binding parS DNA": "≤ 0.2"}, {"variant": "IFKG", "one-hybrid fitness for binding parS DNA": "≤ 0.2"}, {"variant": "RSTE", "one-hybrid fitness for binding parS DNA": "≤ 0.2"}, {"variant": "WIPH", "one-hybrid fitness for binding parS DNA": "≤ 0.2"}, {"variant": "IHKG", "one-hybrid fitness for binding parS DNA": "≤ 0.2"}, {"variant": "EPES", "one-hybrid fitness for binding parS DNA": "≤ 0.2"}, {"variant": "LWDR", "one-hybrid fitness for binding parS DNA": "≤ 0.2"}, {"variant": "RHMY", "one-hybrid fitness for binding parS DNA": 0.383}, {"variant": "EGSY", "one-hybrid fitness for binding parS DNA": "≤ 0.2"}, {"variant": "MIFG", "one-hybrid fitness for binding parS DNA": "≤ 0.2"}, {"variant": "PVAE", "one-hybrid fitness for binding parS DNA": "≤ 0.2"}, {"variant": "ARMH", "one-hybrid fitness for binding parS DNA": "≤ 0.2"}, {"variant": "HAIS", "one-hybrid fitness for binding parS DNA": "≤ 0.2"}, {"variant": "QFYM", "one-hybrid fitness for binding parS DNA": "≤ 0.2"}, {"variant": "HLQF", "one-hybrid fitness for binding parS DNA": "≤ 0.2"}, {"variant": "SHMK", "one-hybrid fitness for binding parS DNA": "≤ 0.2"}, {"variant": "AYHA", "one-hybrid fitness for binding parS DNA": "≤ 0.2"}, {"variant": "NMLG", "one-hybrid fitness for binding parS DNA": "≤ 0.2"}, {"variant": "RWQW", "one-hybrid fitness for binding parS DNA": "≤ 0.2"}, {"variant": "GYFC", "one-hybrid fitness for binding parS DNA": "≤ 0.2"}, {"variant": "KTMG", "one-hybrid fitness for binding parS DNA": "≤ 0.2"}, {"variant": "RMCE", "one-hybrid fitness for binding parS DNA": "≤ 0.2"}, {"variant": "REAS", "one-hybrid fitness for binding parS DNA": 0.212}, {"variant": "YMAE", "one-hybrid fitness for binding parS DNA": "≤ 0.2"}, {"variant": "RTYV", "one-hybrid fitness for binding parS DNA": "≤ 0.2"}, {"variant": "TKVW", "one-hybrid fitness for binding parS DNA": "≤ 0.2"}, {"variant": "LVHT", "one-hybrid fitness for binding parS DNA": "≤ 0.2"}, {"variant": "HLHM", "one-hybrid fitness for binding parS DNA": "≤ 0.2"}, {"variant": "EMRS", "one-hybrid fitness for binding parS DNA": "≤ 0.2"}, {"variant": "YQIW", "one-hybrid fitness for binding parS DNA": "≤ 0.2"}, {"variant": "PRMI", "one-hybrid fitness for binding parS DNA": "≤ 0.2"}, {"variant": "LKAC", "one-hybrid fitness for binding parS DNA": "≤ 0.2"}, {"variant": "HDNM", "one-hybrid fitness for binding parS DNA": "≤ 0.2"}, {"variant": "AAET", "one-hybrid fitness for binding parS DNA": "≤ 0.2"}, {"variant": "SGLL", "one-hybrid fitness for binding parS DNA": "≤ 0.2"}, {"variant": "VQVS", "one-hybrid fitness for binding parS DNA": "≤ 0.2"}, {"variant": "RNNT", "one-hybrid fitness for binding parS DNA": 0.785}, {"variant": "LNPS", "one-hybrid fitness for binding parS DNA": "≤ 0.2"}, {"variant": "LQHR", "one-hybrid fitness for binding parS DNA": "≤ 0.2"}, {"variant": "VRKI", "one-hybrid fitness for binding parS DNA": "≤ 0.2"}, {"variant": "PAQV", "one-hybrid fitness for binding parS DNA": "≤ 0.2"}, {"variant": "SVYE", "one-hybrid fitness for binding parS DNA": "≤ 0.2"}, {"variant": "VSPG", "one-hybrid fitness for binding parS DNA": "≤ 0.2"}, {"variant": "QHLM", "one-hybrid fitness for binding parS DNA": "≤ 0.2"}, {"variant": "IPPD", "one-hybrid fitness for binding parS DNA": "≤ 0.2"}, {"variant": "YACG", "one-hybrid fitness for binding parS DNA": "≤ 0.2"}, {"variant": "SLAS", "one-hybrid fitness for binding parS DNA": "≤ 0.2"}, {"variant": "RSGY", "one-hybrid fitness for binding parS DNA": 0.482}, {"variant": "NASP", "one-hybrid fitness for binding parS DNA": "≤ 0.2"}, {"variant": "WNIT", "one-hybrid fitness for binding parS DNA": "≤ 0.2"}, {"variant": "TIRD", "one-hybrid fitness for binding parS DNA": "≤ 0.2"}, {"variant": "PVRP", "one-hybrid fitness for binding parS DNA": "≤ 0.2"}, {"variant": "VMIL", "one-hybrid fitness for binding parS DNA": "≤ 0.2"}, {"variant": "HHCV", "one-hybrid fitness for binding parS DNA": "≤ 0.2"}, {"variant": "EVHS", "one-hybrid fitness for binding parS DNA": "≤ 0.2"}, {"variant": "LMLD", "one-hybrid fitness for binding parS DNA": "≤ 0.2"}, {"variant": "YQMN", "one-hybrid fitness for binding parS DNA": "≤ 0.2"}, {"variant": "QNTV", "one-hybrid fitness for binding parS DNA": "≤ 0.2"}, {"variant": "IPEG", "one-hybrid fitness for binding parS DNA": "≤ 0.2"}, {"variant": "NCDG", "one-hybrid fitness for binding parS DNA": "≤ 0.2"}, {"variant": "TKDQ", "one-hybrid fitness for binding parS DNA": "≤ 0.2"}, {"variant": "TTDY", "one-hybrid fitness for binding parS DNA": "≤ 0.2"}, {"variant": "RRTT", "one-hybrid fitness for binding parS DNA": 0.565}, {"variant": "ILLY", "one-hybrid fitness for binding parS DNA": "≤ 0.2"}, {"variant": "GIEA", "one-hybrid fitness for binding parS DNA": "≤ 0.2"}, {"variant": "SMPP", "one-hybrid fitness for binding parS DNA": "≤ 0.2"}, {"variant": "EMYW", "one-hybrid fitness for binding parS DNA": "≤ 0.2"}, {"variant": "VPGW", "one-hybrid fitness for binding parS DNA": "≤ 0.2"}, {"variant": "YPSA", "one-hybrid fitness for binding parS DNA": "≤ 0.2"}, {"variant": "SRMY", "one-hybrid fitness for binding parS DNA": "≤ 0.2"}, {"variant": "NITW", "one-hybrid fitness for binding parS DNA": "≤ 0.2"}, {"variant": "PENL", "one-hybrid fitness for binding parS DNA": "≤ 0.2"}, {"variant": "EFYS", "one-hybrid fitness for binding parS DNA": "≤ 0.2"}, {"variant": "QKNI", "one-hybrid fitness for binding parS DNA": "≤ 0.2"}, {"variant": "CYSH", "one-hybrid fitness for binding parS DNA": "≤ 0.2"}, {"variant": "RTQI", "one-hybrid fitness for binding parS DNA": "≤ 0.2"}, {"variant": "MDNV", "one-hybrid fitness for binding parS DNA": "≤ 0.2"}, {"variant": "AIYS", "one-hybrid fitness for binding parS DNA": "≤ 0.2"}, {"variant": "RRME", "one-hybrid fitness for binding parS DNA": "≤ 0.2"}, {"variant": "RMNC", "one-hybrid fitness for binding parS DNA": 0.969}, {"variant": "WHHG", "one-hybrid fitness for binding parS DNA": "≤ 0.2"}, {"variant": "MQLG", "one-hybrid fitness for binding parS DNA": "≤ 0.2"}, {"variant": "QNRM", "one-hybrid fitness for binding parS DNA": "≤ 0.2"}, {"variant": "QPGR", "one-hybrid fitness for binding parS DNA": "≤ 0.2"}, {"variant": "EFSS", "one-hybrid fitness for binding parS DNA": "≤ 0.2"}, {"variant": "MPMW", "one-hybrid fitness for binding parS DNA": "≤ 0.2"}, {"variant": "SKAN", "one-hybrid fitness for binding parS DNA": "≤ 0.2"}, {"variant": "PHYG", "one-hybrid fitness for binding parS DNA": "≤ 0.2"}, {"variant": "NAGS", "one-hybrid fitness for binding parS DNA": "≤ 0.2"}, {"variant": "DGCF", "one-hybrid fitness for binding parS DNA": "≤ 0.2"}, {"variant": "DPYS", "one-hybrid fitness for binding parS DNA": "≤ 0.2"}, {"variant": "QDGF", "one-hybrid fitness for binding parS DNA": "≤ 0.2"}, {"variant": "TARI", "one-hybrid fitness for binding parS DNA": "≤ 0.2"}, {"variant": "GGVW", "one-hybrid fitness for binding parS DNA": "≤ 0.2"}, {"variant": "PRTT", "one-hybrid fitness for binding parS DNA": "≤ 0.2"}, {"variant": "HHYC", "one-hybrid fitness for binding parS DNA": "≤ 0.2"}, {"variant": "FGSG", "one-hybrid fitness for binding parS DNA": "≤ 0.2"}, {"variant": "ACQG", "one-hybrid fitness for binding parS DNA": "≤ 0.2"}, {"variant": "DSYK", "one-hybrid fitness for binding parS DNA": "≤ 0.2"}, {"variant": "TAVG", "one-hybrid fitness for binding parS DNA": "≤ 0.2"}, {"variant": "MVKM", "one-hybrid fitness for binding parS DNA": "≤ 0.2"}, {"variant": "RVIV", "one-hybrid fitness for binding parS DNA": "≤ 0.2"}, {"variant": "IHPG", "one-hybrid fitness for binding parS DNA": "≤ 0.2"}, {"variant": "VDNL", "one-hybrid fitness for binding parS DNA": "≤ 0.2"}, {"variant": "KSKY", "one-hybrid fitness for binding parS DNA": "≤ 0.2"}, {"variant": "KVRL", "one-hybrid fitness for binding parS DNA": "≤ 0.2"}, {"variant": "RFVI", "one-hybrid fitness for binding parS DNA": "≤ 0.2"}, {"variant": "MYYG", "one-hybrid fitness for binding parS DNA": "≤ 0.2"}, {"variant": "LYAA", "one-hybrid fitness for binding parS DNA": "≤ 0.2"}, {"variant": "ILYV", "one-hybrid fitness for binding parS DNA": "≤ 0.2"}, {"variant": "KVYM", "one-hybrid fitness for binding parS DNA": "≤ 0.2"}, {"variant": "SDYW", "one-hybrid fitness for binding parS DNA": "≤ 0.2"}, {"variant": "MADA", "one-hybrid fitness for binding parS DNA": "≤ 0.2"}, {"variant": "KLGA", "one-hybrid fitness for binding parS DNA": "≤ 0.2"}, {"variant": "QWAA", "one-hybrid fitness for binding parS DNA": "≤ 0.2"}, {"variant": "LIRV", "one-hybrid fitness for binding parS DNA": "≤ 0.2"}, {"variant": "FFRM", "one-hybrid fitness for binding parS DNA": "≤ 0.2"}, {"variant": "ITSG", "one-hybrid fitness for binding parS DNA": "≤ 0.2"}, {"variant": "LPCT", "one-hybrid fitness for binding parS DNA": "≤ 0.2"}, {"variant": "YVNR", "one-hybrid fitness for binding parS DNA": "≤ 0.2"}]}]}
